# The whole screen tested about 94,000 compounds, of which about 6,200 (6.6%) were called active. This list was built around the results that the source calls inconclusive (neither active nor inactive); the mix of calls is not that of the screen. Calls come from the whole dose curve; as a rule, active = well fitted inhibition curve with a large enough effect; inconclusive = small, poorly fitted or top-dose-only effect; inactive = flat fitted curve, though single readings scatter. Potencies beside an inconclusive call are fits to weak or partial responses and may not hold up.
# Assay: Cytotoxic Profiling in HEK 293 Cell Line of Diverse Libraries Using Quantitative High-Throughput Screening; note: nearly all actives have a fitted effect of over 60% in size
# Conditions: HEK 293 viability, ATP luminescence (CellTiter-Glo), 48-72 h; activity change, negative = cytotoxicity: at 115 µM (top of the series) unless noted; series mostly up to 115 µM
# Summary of the method: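 Pintool-delivered compounds were incubated with HEK 293 cells (250 cells/well) at 37 degree Celsius for 48 or 72 hr. ATP-dependent luminescence (CellTiter-Glo) then reported remaining viable cells.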
# % is set by controls: 0 for no effect and ±100 for the full control effect; potency is the fitted concentration of half-maximal effect; tags give direction and shape of the fitted curve.
Compound,"activity change, negative = cytotoxicity",outcome,Potency
CCOc1ccccc1NC(=O)C1CCN(C(=O)c2ncn3c2COC(c2ccc(F)cc2)C3)CC1 (stereo not drawn),inactive: 8.84%,,
O=c1ncn(Cc2ccccc2)c2ccc(-c3ccsc3)nc12,,inactive [at 172 µM],
Cc1cc(CN2CC(N(C)c3ccccc3C)C2)on1,,,"inconclusive: 100 µM [inhibitor, partial curve, poor fit]"
CC1=C[C@@H](CNC(=O)Cn2cnnn2)[C@H](C(C)C)C[C@H]1Cc1nc2ccccc2[nH]1,,,"inconclusive: 112 µM [inhibitor, partial curve, poor fit]"
O=C1Nc2ccccc2OCC12CCN(Cc1ccncc1)CC2,,,"inconclusive: 56.2 µM [inhibitor, single point]"
O=C(Nc1ccc2ncnc(N3CCCCC3)c2c1)c1cc(F)ccc1F,,,"inconclusive: 56.2 µM [inhibitor, partial curve, poor fit]"
Cn1cc(-c2cc(-c3cccnc3)c3cncn3c2)cn1,,,"inconclusive: 10 µM [inhibitor, full curve, poor fit]"
Cn1nccc1CN1CCC2(CC1)CC(=O)c1ccc(Cl)cc1O2,,,"inconclusive: 39.8 µM [inhibitor, partial curve]"
O=C(NCc1ccc(Cl)cc1)c1ccc2nnc(-c3cccc(C(F)(F)F)c3)n2c1,,,active: 14.1 µM
COc1cc(NC(=O)CCC2CCN(C(=O)c3ccccc3F)CC2)cc(OC)c1,,,"inconclusive: 35.5 µM [inhibitor, partial curve, poor fit]"
Cc1ccccc1NC1CCn2c(nc(C)c2C(=O)Nc2ccccc2)C1 (stereo not drawn),,,"inconclusive: 10 µM [inhibitor, full curve, poor fit]"
COc1ccc(-n2nc3n(c2=O)CCN(Cc2ccccc2)C3)cc1,,,"inconclusive: 4.47 µM [inhibitor, full curve, poor fit]"
O=C(c1ccccc1Br)N1CCN(c2cc(-c3cccs3)[nH]n2)CC1,,,"inconclusive: 44.7 µM [inhibitor, partial curve, poor fit]"
O=C(c1ccc(-c2cccnc2)nc1)N1CCCC(c2ccccc2)CC1 (stereo not drawn),,,"inconclusive: 89.1 µM [inhibitor, single point]"
O=C1NCCCCCCN(C(=O)c2cccs2)[C@H]2C[C@H](C(=O)N3CCc4ccccc4C3)C[C@@H]12,,,"inconclusive: 89.1 µM [inhibitor, single point]"
CCOc1ccc(NC(=O)c2ccc3c(c2)N(CC)C2CCCCN2C3=O)cc1 (stereo not drawn),,,active: 31.6 µM
CN(C)c1cc(=O)c2ccnc(Nc3ccccn3)c2o1,inactive: -25.4% [at 230 µM],,
Cc1ccc(CNC(=O)N2C[C@@H](Oc3ccccc3)C[C@@H]2C(=O)N2CCOCC2)cc1,inactive: -19.3%,,
CCc1ccc(CN2CCC(CO)(CN3CCCC3)CC2)cc1,,,"inconclusive: 56.2 µM [inhibitor, partial curve, poor fit]"
COc1cccc(CN2CCCC(Cc3ncc(C)n3Cc3ccccc3)C2)c1 (stereo not drawn),,,"inconclusive: 39.8 µM [inhibitor, partial curve, poor fit]"
O=C(Cc1ccccc1)NC1CCN(c2ccc3nnc(C4CC4)n3n2)CC1,,,"inconclusive: 126 µM [inhibitor, single point]"

Compound,"activity change, negative = cytotoxicity",outcome,Potency
COCC(=O)NC[C@H]1CCN(Cc2ccncc2)C[C@H]1N(C)C,inactive: -2.29%,,
CN(Cc1cccc(N2CCN([S+](=O)([O-])c3c(Cl)cccc3Cl)CC2)c1F)[S+](C)(=O)[O-],,,"inconclusive: 20 µM [inhibitor, full curve, poor fit]"
COc1ccccc1-c1ccc(C(=O)N2CCC(C(=O)N3CCC(c4ccccc4)CC3)CC2)cc1,,,"inconclusive: 10 µM [inhibitor, full curve, poor fit]"
O=C(NC[C@H]1Cn2c(-c3ccc4c(c3)OCO4)cnc2CO1)c1ccc2c(c1)OCO2,,,active: 63.1 µM
COCCNC(=O)[C@@H]1C[C@@H](O)CN1C1CCN(C(=O)CN2CCCCCC2)CC1,inactive: -10.2%,,
CC1=C[C@@H](CNS(C)(=O)=O)[C@H](C(C)C)C[C@H]1Cc1nc2ccccc2n1C,,,"inconclusive: 56.2 µM [inhibitor, partial curve, poor fit]"
CCC(C)NC(=O)N1CC(n2cc(C(=O)N3CCOCC3)nn2)C1 (stereo not drawn),,inactive,
CCNC(=O)C1C(c2cccc(NC(=O)c3cccc(C)c3)c2)OC(=O)N1Cc1cccc(Cl)c1 (stereo not drawn),,,active: 28.2 µM
COCCCNC(=O)c1cc(C2CC2)nc2onc(C3CCCNC3)c12 (stereo not drawn),inactive: 2.55%,,
COc1cccc([S+](=O)([O-])N2CCC(N3CCCOC3=O)CC2)c1,inactive: 0.709%,,
COc1ccc(OCC2CN(Cc3cccs3)C(=O)c3ccc(C)nc3O2)cc1 (stereo not drawn),,,"inconclusive: 50.1 µM [inhibitor, partial curve, poor fit]"
O=C(NCC(F)(F)F)c1nc2sccn2c1-c1ccc(C(F)(F)F)cc1,,,"inconclusive: 89.1 µM [inhibitor, single point]"
O=C(Cn1nc2c(cc1=O)CCCCC2)NCCn1c(=O)c(=O)[nH]c2ccccc21,inactive: 3.11%,,
Cc1noc(C)c1-c1cc(-c2cccc(F)c2)cn2cncc12,,,"inconclusive: 79.4 µM [inhibitor, partial curve]"
O=C(C1CCC1)N1CCC(O)(c2csc(CN3CCc4ccccc4C3)n2)CC1,,,"inconclusive: 89.1 µM [inhibitor, partial curve, poor fit]"
CCC(=O)N1Cc2ccccc2CC2(CCCN2CC2CCOCC2)C1 (stereo not drawn),,,"inconclusive: 79.4 µM [inhibitor, single point]"
N#Cc1ccc(CN2CCn3c(nnc3-c3ccccc3)C2)cc1,,,"inconclusive: 112 µM [inhibitor, partial curve, poor fit]"
Cc1ccc(S(=O)(=O)N(C)CC2CCOC2)cc1Cl (stereo not drawn),inactive: -2.11%,,
CCCNC(=O)N1CCCCC1c1noc(COc2ccc(C)cc2)n1 (stereo not drawn),,,"inconclusive: 44.7 µM [inhibitor, partial curve, poor fit]"
O=C(c1ccncc1)N1CCCC(c2noc(COc3ccccc3F)n2)C1 (stereo not drawn),,,"inconclusive: 79.4 µM [inhibitor, partial curve, poor fit]"
Cc1ccc(NC(=O)CC2CCCN(c3cnn(CC4CC4)c(=O)c3)C2)cc1 (stereo not drawn),inactive: -29.8%,,

Compound,"activity change, negative = cytotoxicity",outcome,Potency
CCc1nn(-c2ccc(OC)cc2)c(Oc2ccccc2F)c1CCC(=O)NC(C)C,,,"inconclusive: 89.1 µM [inhibitor, single point]"
O=C(Nc1ccc(Oc2ccccc2)cc1)O[C@@H]1CO[C@H]2[C@@H]1OC[C@@H]2NC(=S)Nc1cccc2ccccc12,,,"inconclusive: 17.8 µM [inhibitor, full curve, poor fit]"
CCC(CC)CC(=O)N1CCCC(Nc2ccc3c(c2)OCCO3)C1 (stereo not drawn),,,"inconclusive: 89.1 µM [inhibitor, partial curve, poor fit]"
Cc1cc(C)c(CNC(=O)c2cc(-c3ccccc3O)cc3c2OCCN3C(C)C)c(=O)[nH]1,,,"inconclusive: 56.2 µM [inhibitor, partial curve, poor fit]"
O=C(CCc1ccccc1)N1CCCN(c2cc(-c3ccc(Cl)cc3)[nH]n2)CC1,,,"inconclusive: 44.7 µM [inhibitor, partial curve, poor fit]"
O=C(NCCc1noc(C2CC2)n1)Nc1cccc(C(F)(F)F)c1,,,"inconclusive: 79.4 µM [inhibitor, single point]"
COc1cccc([S+](=O)([O-])N2CCC3(C2)OC(=O)Nc2ccccc23)c1 (stereo not drawn),,,"inconclusive: 79.4 µM [inhibitor, single point]"
CCC(OC)C(=O)N1CCN(c2nc(-c3ccccc3)nc3c2CCC3)CC1 (stereo not drawn),,,"inconclusive: 44.7 µM [inhibitor, partial curve, poor fit]"
CCOc1ccccc1CN1CCC2(CCN(C(=O)Nc3ccccc3)CC2)Oc2ccccc21,,,"inconclusive: 39.8 µM [inhibitor, partial curve, poor fit]"
COc1ccc(C(=O)N[C@@H]2CN(Cc3cccnc3)C[C@H]2CN(C)C)cc1F,,,"inconclusive: 56.2 µM [inhibitor, partial curve, poor fit]"
O=C(c1ccccc1)N1Cc2ccccc2CC2(CCCCN2Cc2ccncc2)C1 (stereo not drawn),,,"inconclusive: 44.7 µM [inhibitor, partial curve, poor fit]"
O=C(O)c1ccc(-c2ccc(C(F)(F)F)cc2)cc1,inactive: -3.81% [at 172 µM],,
COC(=O)NC1CCN(c2ccc3nnc(-c4ccccc4)n3n2)CC1,,,"inconclusive: 89.1 µM [inhibitor, single point]"
O=C(c1ccccc1)N1CCCC(n2cc(-c3nc(C4CC4)no3)nn2)C1 (stereo not drawn),,,"inconclusive: 50.1 µM [inhibitor, partial curve, poor fit]"
CC(Cc1cnccn1)Nc1ccc(-c2nc(-c3cccc(Cl)c3)no2)cn1 (stereo not drawn),,,"inconclusive: 44.7 µM [inhibitor, partial curve]"
CCOC(=O)C[C@@H]1C[C@@H](C(C)C)[C@H](CNC(=O)c2cccnc2)C=C1C,,,"inconclusive: 63.1 µM [inhibitor, full curve, poor fit]"
O=C(CC1CCN(S(=O)(=O)c2ccccc2F)C1)NCc1ccccc1 (stereo not drawn),,,"inconclusive: 70.8 µM [inhibitor, partial curve]"
Cc1cc(S(=O)(=O)N2CCc3nn(C)c(=O)n3CC2)ccc1Cl,inactive: -2.69%,,
Cc1cc(C)cc(C(=O)NC2CCN(C(=O)c3cc4c(=O)[nH]c(C)cn4n3)CC2)c1,inactive: 5.77%,,
NC(=O)c1cccc(-c2ncc3c(n2)OCCN(c2cccc(C(F)(F)F)c2)C3=O)c1,,,"inconclusive: 100 µM [inhibitor, partial curve]"
Cc1ccc(NC(=O)CN2C(=O)NC3(CCC(C)CC3)C2=O)c(Cl)c1 (stereo not drawn),inconclusive: -32.5% [inhibitor],,

# Reference: PubChem BioAssay AID1345083 (National Center for Advancing Translational Sciences (NCATS), 2018)
